Measured values: US11285169B2, “Methods for modulating chemotherapeutic cytotoxicity” (The United States of America, as represented by the …, priority 2013, dated 2022)
Where a name gives a salt, the structure may show the parent alone. Read-outs that look alike come from different tables or passages of the source.

Tests used:
[1] = tested on: CD47 deficient (CD47 KO) Jurkat T cells; assay: cells; conditions: Homo sapiens, 48 h, read-out: AC50 (μM) CD47 KO
[2] = tested on: CD47 deficient (CD47 KO) Jurkat T cells
WT Jurkat cells [3] = assay: cells; conditions: Homo sapiens, 48 h, read-out: AC50 (μM) WT
WT Jurkat cells [4] = tested on: WT Jurkat cells
[5] = CD47 KO Jurkat T cells, 48 hours, 10^-9 to 10^-4 M, CellTiter-Glo
[6] = log AC50 difference CD47 KO minus WT
[7] = WT Jurkat cells, 48 hours, 10^-9 to 10^-4 M, CellTiter-Glo

Row | Structure (SMILES) | AC50 [1] | cytotoxicity in CD47 deficient versus wild-type Jurkat cells (FIGS. 14, 15) ([2]; 48 hours, increasing concentrations) | Maximal Response CD47 KO (RLU) [2, 5] | Δ LogAC50 CD47KO-WT [2, 6] | AC50 (WT Jurkat cells [3]) | Maximal Response WT (RLU) (WT Jurkat cells [4]; [7]) | Maximal Response CD47 KO (RLU) [2] | Δ LogAC50 CD47KO-WT [2] | Maximal Response WT (RLU) (WT Jurkat cells [4]) | inhibitory potency (AC50), CD47-deficient versus WT Jurkat T cells (in words) ([2]; 48 hours) | maximal inhibition of viability, CD47-deficient versus WT Jurkat T cells (in words) ([2]; 48 hours)
1 | COc1cccc2c1C(=O)c1c(O)c3c(c(O)c1C2=O)C[C@@](O)(C(=O)CO)C[C@@H]3O[C@H]1C[C@H](N)[C@H](O[C@@H]2CCCCO2)[C@H](C)O1 [Pirarubicin] | 13.2 µM | protected | 26.932 RLU | 0.95 | 1.48 µM | 4.326 RLU |  |  |  |  | 
2 | CO[C@H]1[C@H](O)[C@@H](O)[C@H](n2c3c(Cl)cccc3c3c4c(c5c6cccc(Cl)c6[nH]c5c32)C(=O)NC4=O)O[C@@H]1CO [Rebeccamycin] | 0.743 µM |  | 41.489 RLU | 0.7 | 0.148 µM | 12.004 RLU |  |  |  |  | 
3 | CC[C@@]1(O)C(=O)OCc2c1cc1n(c2=O)Cc2cc3c(CN(C)C)c(O)ccc3nc2-1 [Topotecan hydrochloride] | 2.09 µM |  | 30.703 RLU | 1.7 | 0.0418 µM | 8.516 RLU |  |  |  |  | 
4 | Cc1[nH]c(/C=C2\C(=O)Nc3ccccc32)c(C)c1CCC(=O)O [Orantinib] | 16.6 µM |  | 36.73 RLU | 1.05 | 1.48 µM | 6.657 RLU |  |  |  |  | 
5 | N=c1ccn2c(n1)O[C@H]1[C@H](O)[C@@H](CO)O[C@H]12 [Cyclocytidine HCl] | 1.18 µM |  | 59.998 RLU | 0.7 | 0.235 µM | 9.572 RLU |  |  |  |  | 
6 | COc1cc2nccc(Oc3ccc(NC(=O)NC4CC4)c(Cl)c3)c2cc1C(N)=O [Lenvatinib] | 16.6 µM |  | 51.428 RLU | 0.8 | 2.64 µM | 5.012 RLU |  |  |  |  | 
7 | COc1ccc(S(=O)(=O)N(C(C)=O)c2ccccc2/C=C/c2cc[n+]([O-])cc2)cc1 [IVX-214] | 1.48 µM |  |  |  | 0.469 µM |  | 32.053 RLU | 0.5 | 8.077 RLU |  | 
8 | C=C1[C@H](CO)[C@@H](O)C[C@@H]1n1cnc2c(=O)[nH]c(N)nc21 [Entecavir] | 4.69 µM |  | 63.062 RLU |  | 0.332 µM | 7.89 RLU |  |  |  |  | 
9 | Nc1ccn([C@@H]2O[C@H](CO)[C@@H](O)C2(F)F)c(=O)n1 [Gemcitabine] | 0.186 µM |  | 43.326 RLU | 0.55 | 0.0526 µM | 10.147 RLU |  |  |  | significant decrease in inhibitory potency | significantly decreased maximal inhibition of viability
10 | CCc1c2c(nc3ccc(OC(=O)N4CCC(N5CCCCC5)CC4)cc13)-c1cc3c(c(=O)n1C2)COC(=O)[C@]3(O)CC [Irinotecan] | 1.87 µM |  | 40.251 RLU | 0.75 | 0.332 µM | 15.402 RLU |  |  |  |  | 
11 | COC(=O)c1ccc2c(c1)NC(=O)/C2=C(\Nc1ccc(N(C)C(=O)CN2CCN(C)CC2)cc1)c1ccccc1 [Vargatef] | 14.8 µM |  | 50.125 RLU | 0.65 | 3.32 µM | 12.253 RLU |  |  |  |  | 
